Measurements reported in the supplement of paper PMC10126150.
Sequences with one replicate were seen in a single cluster, so their values are uncertain.

Each sequence was assayed on ATP (assay: switch fluorescence ratio, 500 uM ATP over buffer (Cy3 cluster intensity, sum of 5 cycles each) (fold (ratio)); higher = stronger signal-on switching upon ATP binding; sequences stand for … in TCGTCGGCAGCGTCAGATGTGTATAAGAGACAGTTTTTTTTTTTTTTTTTTTTTTTTT…TC). Settings: aptamer strand: ATP DNA aptamer (quencher-CACCTGGGGGAGTATTGCGGAGGAAGG + anchor), 100 nM annealed; ATP concentration: 500 uM; one replicate.
Outline: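 Clusters carrying Cy3-labelled switching strands on a modified Illumina MiSeq flow-cell were annealed to 100 nM quencher-labelled ATP aptamer and imaged in selection buffer. They were imaged again after 15 min with 500 uM ATP at 22 °C, over five buffer/ATP cycles with NaOH stripping and re-annealing in between. For each cluster, the fluorescence ratio is the summed Cy3 intensity of the target cycles divided by that of the buffer cycles, averaged per switch-domain sequence. Clusters outside 100-1000 RFU were left out.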
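Also: ATP exposure 15 min at 22 °C before imaging.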

| Sequence | switch fluorescence ratio |
| --- | --- |
| TCAAAGGTCT | 1.02 |
| TACTAGGGGC | 1.08 |
| GATCTCCTA | 0.92 |
| TAAGATGACC | 0.923 |
| TAGCTTGGAG | 1.02 |
| AGCGGCTACC | 1.07 |
| TCTCGCTTGT | 1.03 |
| TGAGACAATC | 1.14 |
| GAAATCTTAG | 1.01 |
| AGAGGGAACG | 1.03 |
| TCCGTTCT | 0.998 |
| CGGGGGCCTG | 0.894 |
| TGCCAGCACT | 1.3 |
| ATTGTACTAT | 0.978 |
| TGCGCTTATT | 1.01 |
| TTCTTGAGC | 1.06 |
| GATCACTGGG | 1.03 |
| GTGAGTGCTT | 1 |
| TAGTTCCCC | 1 |
| CTTAGAGCTA | 0.992 |
| ACGGGCTTGA | 1.07 |
| TCCTGAATAG | 1.11 |
| CAAAATTATC | 1.01 |
| AATATCTCTT | 1.26 |
| ATTTAATGAG | 0.976 |
| GTGGGTTACC | 0.997 |

| Sequence | switch fluorescence ratio |
| --- | --- |
| GACCGAAGCT | 1.25 |
| CTTAATAGGG | 0.991 |
| TTGTGGTAG | 1.01 |
| CGGCATATGG | 1.06 |
| CTGGATTTTG | 0.979 |
| TGCGACAGGA | 1.03 |
| AATGCTGGGC | 0.976 |
| GAGTCACTGA | 1.06 |
| TTCCGGTATA | 1.11 |
| TGCCTCTTTA | 0.956 |
| CTGGCAGCGC | 1.02 |
| TTATGGGGCC | 1.03 |
| ATGAGAGAGG | 0.971 |
| AGTCGCCCT | 0.988 |
| AGTACTGAGT | 1.1 |
| TTTGCCCGAC | 1.22 |
| TTGCAGACGA | 1.12 |
| GGCGTCTTTT | 1 |
| CCTTCATCGA | 1.38 |
| AAGACCCAGC | 0.994 |
| ATTCGGCGCT | 0.978 |
| TTCACAGTCT | 1.21 |
| ACGGATCCTA | 0.959 |
| GAGTTGGCGA | 0.99 |
| CTTAATAAAT | 1 |
| AGAGGATGG | 1.02 |

| Sequence | switch fluorescence ratio |
| --- | --- |
| CGGACCCAGA | 1.2 |
| ACCCCCAGGT | 1.47 |
| GTAGGATTGA | 0.97 |
| GTTCGCCACG | 0.984 |
| ATGGCTAGGG | 1.03 |
| GAGGTCCGGG | 0.969 |
| CCATGCAGGA | 0.991 |
| GTAGGGATAC | 3.32 |
| GGAGACTCGA | 0.996 |
| GCTGGCCGTA | 1.08 |
| ATAACAGGTG | 0.928 |
| GTGCGGGGTC | 0.969 |
| AGATCAGAGG | 0.998 |
| GGTTAGAGCA | 1.01 |
| ACTATTTCCG | 0.967 |
| TAGCCCCTCG | 0.998 |
| TAGACAGGGC | 1.04 |
| AATTGGACTG | 1.12 |
| CATACGATTA | 1.06 |
| ACACTAGGGA | 0.99 |
| TCCAGCCGAC | 1.3 |
| TGTGCATCTG | 1.03 |
| ACGGAAGCCA | 1.07 |
| GACGACACGG | 1.19 |
| GTGGGAAGGA | 1.01 |
| GTGGCTGGGC | 1.03 |

| Sequence | switch fluorescence ratio |
| --- | --- |
| TCGCCGAGGG | 0.986 |
| CCCGCCAACG | 1.73 |
| GTGGGAGCAG | 1 |
| AAAATACGGT | 1.02 |
| GCCCGGTGGC | 1.1 |
| TGCTGGCAGG | 0.98 |
| AGGCTTCCAG | 1.01 |
| ATGAGATGTG | 0.964 |
| CGCTGGTTGC | 1.08 |
| ACACTGGTCT | 1.04 |
| GCAACGTTCT | 0.967 |
| AAGTAATACC | 1.3 |
| GGACAAGTGT | 1.01 |
| ATCAGGGCGC | 1.08 |
| ATGCTTCAGC | 0.992 |
| ACCGAGACAT | 1.07 |
| TTAGAAGATG | 0.946 |
| CCCGACGGGG | 1.19 |
| GATCCCCCCT | 1.15 |
| TAAGAGGACC | 0.974 |
| CATCTCACGG | 0.995 |
| ACGAAGGCTG | 0.908 |
| ATAGGTCGGT | 0.996 |
| TAAAGGAGCT | 1.04 |
| GTGGCTTGAT | 1 |
| GATATAGGTA | 0.996 |

| Sequence | switch fluorescence ratio |
| --- | --- |
| GCCTCGTAAC | 1.17 |
| ATTGATAACT | 0.998 |
| TCTTAACGAC | 1.14 |
| CATTTTAAAT | 0.996 |
| GCGGGGAATC | 0.99 |
| GGCCGCTCGG | 1.09 |
| TCAACGGTTG | 0.977 |
| GGTATACGAA | 1 |
| CAGAGTTTAC | 1.1 |
| TGTTAGAGGT | 1.01 |
| CAAGAGGCAA | 1.13 |
| GTAGGTTCGC | 0.999 |
| CGTTTGTAAA | 0.978 |
| TACCGTGATA | 1.08 |
| CCTGTTAACG | 1.03 |
| AGGATCGGGA | 1.06 |
| ATTGGTTAGC | 0.976 |
| TGAAACCTAA | 1.12 |
| TCCTTCCGGA | 2.31 |
| AAGCTTCTGC | 1.02 |
| ATTCGATGCA | 1.09 |
| CCGGTCTCTG | 0.906 |
| ATGAATGGC | 1.1 |
| CTGGTAGGAG | 1.05 |
| TTGTAAGGAC | 1.05 |
| GAATCAGAGT | 0.99 |

| Sequence | switch fluorescence ratio |
| --- | --- |
| GTGACGTATG | 1.03 |
| AAAACACATT | 1.06 |
| TTGAATTCTT | 0.988 |
| CGCGTAGTTC | 1.04 |
| CGTTTCGGCT | 0.986 |
| AGTAAGGGTG | 1.05 |
| TCACACTAAA | 1.04 |
| GTGCGAAAGA | 1.02 |
| ATAACGGGT | 0.957 |
| ACGAACTACG | 1.31 |
| CAGGGGAGG | 1.02 |
| TACGGGGTTA | 1.01 |
| AATTTCTAAC | 0.994 |
| CGAACAAATA | 0.985 |
| AGCATGATCT | 0.99 |
| TAACTTCTGC | 0.962 |
| CCATTGGGCT | 1.05 |
| CAGGGACAGG | 1 |
| GGCGATATCG | 0.926 |
| CGCGCCCACG | 1.04 |
| ATATTCAG | 1.02 |
| AAATGTATTC | 1.03 |
| AACGGCCG | 1.01 |
| ATGCTACAGG | 1.03 |
| GGATTCCTCG | 1.2 |
| GATGAATATA | 0.938 |

| Sequence | switch fluorescence ratio |
| --- | --- |
| AAATTACT | 1.05 |
| AATTGTTATC | 0.991 |
| ATGTGGGTCC | 1.02 |
| GACGGCGGGA | 1.04 |
| TGCTGTTTGT | 1 |
| CGGCAGAACT | 2.64 |
| CGAGTAGCCA | 0.999 |
| GCCATCCCAG | 1.04 |
| GGTCACAAGC | 0.981 |
| GACTAATGAC | 1.06 |
| GGGTTCGAAT | 1.02 |
| AAACAATTGT | 1.01 |
| TGACAATCA | 0.994 |
| GCTATCAACT | 1.01 |
| TAGTAAGGCA | 1.01 |
| CCATTGTCCG | 0.966 |
| CTTGACTCCC | 1.55 |
| GCAAGGTTAG | 0.981 |
| TTCCCTGGAG | 1.06 |
| AATAATTCC | 1.08 |
| AAGTAGGCTA | 0.976 |
| GACCGTTTAT | 1.03 |
| CGGGACAGCA | 0.983 |
| CGACGCGCTG | 1.07 |
| GGAATGCCGT | 1.03 |
| AAACTGTATG | 0.994 |

| Sequence | switch fluorescence ratio |
| --- | --- |
| TCTAGACGAG | 0.984 |
| AGTTGAGCG | 0.961 |
| GATAGAGCTC | 0.991 |
| CCTTGTCAAC | 1.04 |
| ATTCAGTAGT | 0.985 |
| CGCATGTAAT | 1.08 |
| ACCTGGCGAT | 1.1 |
| AGGGCGCTGT | 0.985 |
| CCGAGTGCGG | 1.19 |
| TCCAAATACC | 1.16 |
| CAGGGTTTCC | 1.02 |
| TAGAGTTTTT | 0.998 |
| ATGCAGTTC | 1.04 |
| AGCGTATGTA | 1.01 |
| TTCTAGGTAC | 4.33 |
| AGTTAATGT | 0.983 |
| ATAGTGCCAA | 1.01 |
| ATCGGAAATA | 1 |
| TTTTAATTA | 1.03 |
